This is one part of the list.

Drawing on publication PMC12136788, this text covers binding signal for 14 molecules.

T1: UNK ZnF1-3 (human, UniProt Q9C0B0 31-174)
T1 sequence: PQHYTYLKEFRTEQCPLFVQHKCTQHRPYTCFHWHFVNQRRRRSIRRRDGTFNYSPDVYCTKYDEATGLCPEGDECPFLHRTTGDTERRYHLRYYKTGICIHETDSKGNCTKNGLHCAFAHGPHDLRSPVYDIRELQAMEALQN

B1: chr15:78834838:78834839:+_ENSG00000041357_ENST00000044462|hu_mus|motif|central (ssRNA)
RNA: GGGAGUUCUACAGUCCGACGAUCAUCAAGAAGCUUGUGGAUGUUGCGCCUCUCCGCUGCAAGCAAAACUCCAUCAUUGGCGGAAAUCCCCAAACAGGUGCCUGCAUGUCCAAUGGCUUCCAUGGCAUACUCCACUUGGUAUAACAACAGAGGAUUGAGCAUCA
B2: chr14:102550858:102550859:-_ENSG00000080824_ENST00000216281|hu_hu|FALSE|FALSE (ssRNA)
RNA: GGGAGUUCUACAGUCCGACGAUCGUUGUUCUUUUUCUUUCUGUUUUCAAACAGAUCAAAAGGAGCACGUCGUGGGACAAAUAGAAGGGCUCUGAAUUCCAACUGUCCUUCAACUGAAAAAUGCUUCACUGCCAAGUGAUCUUCCAACAGAGGAUUGAGCAUCA
B3: chr1:220276048:220276049:+_ENSG00000067704_ENST00000302637|hu_hu|hu_hu_hu_mus_True|68_68 (ssRNA)
RNA: GGGAGUUCUACAGUCCGACGAUCGCAAAUUGCCUGGUUGGCGGGAAUUGUCCAAGGCUGGGUGGUCCAGACCAAAACGCUAACAGGGGAUGAGGCAUCUGUAAGAGACUCCAACUUCGGAGGAGGUCUCAGGAGGGGGAAUCUCAACAGAGGAUUGAGCAUCA
B4: chr2:168013125:168013126:-_ENSMUSG00000051149_ENSMUST00000088001|mus_mus|motif|central (ssRNA)
RNA: GGGAGUUCUACAGUCCGACGAUCCUCCCAUGUAGUGUUUUUCAAAUAAAAGUCAUUAGGUUCAAACUGUUUAAAAUCUUCGGUAUGUUCUUUACAGUAUUCCAACCCAAUGUCACUAAGUAUUUUUUUCACAGUUUUCCGGGCCAACAGAGGAUUGAGCAUCA
B5: chr6:119166446:119166447:+_ENSMUSG00000041477_ENSMUST00000149651|mus_mus|motif|central (ssRNA)
RNA: GGGAGUUCUACAGUCCGACGAUCUGCCCAAGGCCUUUGUUUUAAAAAUCAUGAACAAUUUCUGAGGACCUACUCUGAGCGGUGUGAUGAAACAAGUAAAAAAGAUCAAGAUUUUUAAAUAAAUAAAAUAAAAAUAAAAAUAAACAACAGAGGAUUGAGCAUCA
B6: chr6:56729896:56729897:-_ENSMUSG00000059486_ENSMUST00000114323|mus_mus|FALSE|FALSE (ssRNA)
RNA: GGGAGUUCUACAGUCCGACGAUCCUUAUGCAAAUCAGCGGGUGGGCUGCAUAACUUGUAAACUUUUUCUGCCUGGGGGCUAUAACAGACAGAAGAGUAAAGACUACAAGGGUUUUCUGAGGAUGCUUCAAUGAAAAUCAUCAUCAACAGAGGAUUGAGCAUCA
B7: 44164716_44164836_307_3pUTR_ENSMUSG00000039753_ENSMUST00000047857|mouse|control|control (ssRNA)
RNA: GGGAGUUCUACAGUCCGACGAUCAGCAUCUCGGAGAGCUUAUUGUCAGAGUGUACAUUAUAUAUGGUCUGACUGCGCUGCUGAAGUAAACCGAUAAUGUAUUCAUUUUCAAUUUGUUCAUGCAUUUUAAACUCCUUGAAAGUACAACAGAGGAUUGAGCAUCA
B8: chr12:73312838:73312839:-_ENSMUSG00000021087_ENSMUST00000021497|mus_mus|FALSE|FALSE (ssRNA)
RNA: GGGAGUUCUACAGUCCGACGAUCUCAGUAUCAAGUACAUAAGUGCAAAUAUCCAGAGUCUGUGAUUGAGUCCAUUAGGAACUACAGAGGAAGUAAUACAAAUUGUAAUAAAGUCAACAUGCUGGCACCUUUAGUUACCAUACACAACAGAGGAUUGAGCAUCA
B9: 88154387_88168238_179_CDS_ENSMUSG00000005621_ENSMUST00000107353|mouse|control|control (ssRNA)
RNA: GGGAGUUCUACAGUCCGACGAUCGGGAUCUGGGAUGUCAAAGGCAGCCAGGAGAUCAUCAAAAUCUGGAGUUUUCAUAUCCCCCAUGGCUGGAUGCUGACAAGUACUUAGUGAGGUUCUCAAAACAAGGGUGUGGUGAGCGUUCAACAGAGGAUUGAGCAUCA
B10: chr2:192257801:192257802:+_ENSG00000128641_ENST00000304164|hu_hu|FALSE|FALSE (ssRNA)
RNA: GGGAGUUCUACAGUCCGACGAUCAUAUAUCUUCUGAAUGAGAGUGGCCAAGUCCUCCAGGCGUUGCUUCCUCAGGUCUUCUAAUUUGAAUAAUGUUCUUGGGUUUCGGAUGAAUAUCUUUGAUCUACCAAAGGAGUAUUCUUCCAACAGAGGAUUGAGCAUCA
B11: chr7:141450121:141450122:+_ENSG00000106028_ENST00000265304|hu_mus|hu_hu_hu_mus_True|68_98 (ssRNA)
RNA: GGGAGUUCUACAGUCCGACGAUCUCAUCCGUUCUAUUCCUUCUCUUUUGUCUGGUCACUCAGAAAUAUAAUAUUAUCAGCUAUGAUUGUUGUUGCUUGCCGCCUCACAUUGUUUUUAUCCAUGUACUCGCCAUAGUCCACUUUCAACAGAGGAUUGAGCAUCA
B12: 115891780_115891900_2025_3pUTR_ENSG00000165813_ENST00000369287|human|control|control (ssRNA)
RNA: GGGAGUUCUACAGUCCGACGAUCGGAUUCAGACUGAAGCUGUGCAUUCUUACUAGUGAGCCUUUCUGUAAACAGCAGCAGCUCAGAUUCUCUUUUCCUACUGCCUUCGAUGUCUUUUUGUAGGUCAUUAAUCAAAGAAUUAAGCAACAGAGGAUUGAGCAUCA
B13: chr2:169020305:169020306:-_ENSG00000198648_ENST00000355999|hu_hu|motif|central (ssRNA)
RNA: GGGAGUUCUACAGUCCGACGAUCCUGACCGUUUCUGUGUAGAUAGUCUAAGCCUUCCAAAACCUCUUUAAGAAUUGUUGCGGUUAUUGCCUCUUCCAGAACUCCAUUCUUGUGUUCUCCUCGGUUGACAAUGUAUUUUAUGAUCAACAGAGGAUUGAGCAUCA
B14: chr8:80553714:80553715:+_ENSG00000104435_ENST00000220876|hu_hu|motif|central (ssRNA)
RNA: GGGAGUUCUACAGUCCGACGAUCAGCCUCCAGUUUCUUCUGGAUCUCCUCCAGGGACAGGUCUUUCUUCUUUGGAGAAGCGGAAGUUCGUGGGGCUUCUGAGAUAGGAGAUGGUGGCUUCAAGAUCAGCUCAAAAGCCUGGCCCAACAGAGGAUUGAGCAUCA

The assay has as its target T1, UNK ZnF1-3. Description: nsRBNS (natural sequence RNA bind-n-seq); RBNS binding buffer (assumed for nsRBNS): 25 mM Tris pH 7.5, 150 mM KCl, 3 mM MgCl2, 0.01% Triton X-100, 500 ug/ml BSA, 20 U/ml SUPERase-In, 4 C; UNK is unkempt and MSI1 is Musashi-1; names of the RNAs are library labels; protein concentration not given here; high values mean tight binding.
Regarding B1, the binding signal is 0.813 enrichment R.
For B2, the binding signal turned out to be 0.582 enrichment R.
In the case of B3, the binding signal was 1.49 enrichment R.
For the molecule B4, the binding signal turned out to be 0.705 enrichment R.
Consider B5, for which the binding signal stood at 0.268 enrichment R.
As for B6, the binding signal stood at 1.49 enrichment R.
The value for B7 was 0.973 enrichment R; that for B8 was 1.71 enrichment R.
The molecule B9 showed a binding signal of 1.08 enrichment R.
For the molecule B10, the binding signal was 1.02 enrichment R.
The value for B11 was 0.436 enrichment R; that for B12 was 0.802 enrichment R; that for B13 was 0.439 enrichment R.
Consider B14, for which the binding signal was found to be 0.853 enrichment R.
